In PubChem BioAssay AID493208 (National Center for Advancing Translational Sciences (NCATS), 2011):
Out of some 44,000 compounds screened, about 340 (0.77%) were called active. Roughly 5% stayed inconclusive and do not appear here. The call rests on the fitted dose curve; in most records, active means well fitted inhibition curve with a large enough effect; inconclusive means small, poorly fitted or top-dose-only effect; inactive means flat fitted curve, though single readings scatter. This is one part of the list.

assay: Acumen qHTS Assay for Inhibitors of the mTORC1 Signaling Pathway in MEF (Tsc2-/-, p53-/-) Cells: Sytravon; conditions: phospho-rpS6 immunofluorescence/PI, 24 h; series mostly up to 38.3 µM; activity change, negative = inhibition: at the top concentration;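 further: plate controls were DMSO for no effect and rapamycin for full effect; nearly all actives have a fitted effect of over 50% in size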
How it was run: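 Readout is phospho-S6 Alexa 488 signal normalized to PI per well, reported as % active cells with thresholds set from rapamycin (7.5 nM) and DMSO controls. Cells: Tsc2-/-, p53-/- MEFs, 24 hrs compound at 37 C; PI cell number serves as viability.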

Activity change, negative = inhibition, inactive:
O=C(Nc1ccccc1OCc1cc(=O)n2ccccc2n1)c1ccccc1F 9.18%
COC(=O)c1ccc(Cn2nnc3sc4c(c3c2=O)CCCC4)cc1 -4.31%
CCc1ccccc1OCCSc1nnc(-c2cc(OC)c(OC)c(OC)c2)o1 -7.95%
CCOC(=O)c1cccc(NC(=O)C(Cc2ccccc2)NS(=O)(=O)c2cccc3nsnc23)c1 (configuration not stated) -11.9%
CCN(CC)c1ccc(NC(=O)c2cc3c(=O)n4cccc(C)c4nc3n2C)c(C)c1 0.191%
Cc1cc(S(=O)(=O)NCC(c2ccc(N(C)C)cc2)N2CCOCC2)ccc1F (configuration not stated) 4.28%
O=C(CSC1=Nc2ccccc2N=C(c2ccc(F)cc2)C1)NCc1ccc(Cl)cc1 -1.97%
CC(=O)c1ccc(NC(=O)c2nc3ccccc3n(C)c2=O)cc1 -6.62%
CCn1nc(C)c2c(-c3ccccc3)cc(=O)n(C(C)C(=O)NCc3ccc(C)cc3)c21 (configuration not stated) 0%
CCCCCNC(=O)CCn1c(=O)[nH]c2ccccc2c1=O -1.32%
COc1ccc(/C=C/c2nc3ccccc3c(=O)n2-c2cccc(C(F)(F)F)c2)cc1 8.49%
Cc1ccc(CN(C(=O)COc2ccc(Cl)cc2Cl)C2CCS(=O)(=O)C2)o1 (configuration not stated) 3.97%
Cc1[nH]c(=O)[nH]c(=O)c1S(=O)(=O)N1CCN(c2cccc(Cl)c2)CC1 -0.0302%
CCCNC(=O)Cn1nc(-c2ccc(C)c(C)c2)c2cnc3ccc(F)cc3c21 -9.84%
Cc1ccc(C)c(CN2C(=O)CSc3ccc(C(=O)NCCc4ccc(Cl)cc4)cc32)c1 1.52%
O=C(Nc1cccc(C(F)(F)F)c1)Nc1nnc(N2CCCCC2)s1 2.94%
N#Cc1c(Nc2cccc(F)c2)sc(C(=O)c2ccc(Cl)cc2)c1N 0.393%
CCN(c1ccccc1)S(=O)(=O)c1ccc2[nH]cc(C(=O)NCc3ccc(C)cc3)c(=O)c2c1 -5%
Cc1c(-c2ccc(Cl)cc2)c(=O)oc2c(CN3CCCC3)c(O)ccc12 0.49%
COc1ccc(N2CC(NC(=O)c3ccc(OC(C)C)cc3)CC2=O)cc1 (configuration not stated) -12.4%
COc1ccccc1CNC(=O)CN1C(=O)CCn2nc(-c3ccccc3)cc21 1.82%
COc1ccc(-c2nc3sc(CCNS(=O)(=O)c4ccc(F)c(C)c4)c(C)n3n2)cc1 -14.5%
COc1ccc(N(C(=O)COc2ccccc2OC)S(=O)(=O)c2ccc(Cl)cc2)cc1 0.291%
Cc1noc(C)c1S(=O)(=O)N1CCCC(C(=O)Nc2ccc(C(C)C)cc2)C1 (configuration not stated) -11.9%
O=C(c1ccccc1)n1nc(-c2ccco2)nc1NCc1ccccc1Cl -3.52%
CCOc1ccc(CCNC(=O)C2CCC(CNS(=O)(=O)c3ccc(Cl)cc3)CC2)cc1OCC (configuration not stated) 0.302%
COc1cccc(-n2cc(C(=O)Nc3cc(C)c(Cl)cc3OC)c3ccccc3c2=O)c1 -3.3%
